{
  "source": "PubChem BioAssay AID485294",
  "about": "(National Center for Advancing Translational Sciences (NCATS), 2010)",
  "note": "About 150 (0.041%) of roughly 370,000 compounds were called active. Inconclusive results, whose numbers are uncertain, are shown with a selection of clear calls. Calls follow the shape of the dose curve; as a rule, active = well fitted inhibition curve with a large enough effect; inconclusive = small, poorly fitted or top-dose-only effect; inactive = flat fitted curve, though single readings scatter. No potency is given beside an inconclusive call; the fits are too rough. Potency is read from the fitted curve at half-maximal effect; tags tell the direction and shape of the fitted curve.",
  "data": [
    {"target": "Beta-lactamase (Escherichia coli (strain K12)) (UniProt P00811)", "sequence (P00811 whole entry, looked up)": "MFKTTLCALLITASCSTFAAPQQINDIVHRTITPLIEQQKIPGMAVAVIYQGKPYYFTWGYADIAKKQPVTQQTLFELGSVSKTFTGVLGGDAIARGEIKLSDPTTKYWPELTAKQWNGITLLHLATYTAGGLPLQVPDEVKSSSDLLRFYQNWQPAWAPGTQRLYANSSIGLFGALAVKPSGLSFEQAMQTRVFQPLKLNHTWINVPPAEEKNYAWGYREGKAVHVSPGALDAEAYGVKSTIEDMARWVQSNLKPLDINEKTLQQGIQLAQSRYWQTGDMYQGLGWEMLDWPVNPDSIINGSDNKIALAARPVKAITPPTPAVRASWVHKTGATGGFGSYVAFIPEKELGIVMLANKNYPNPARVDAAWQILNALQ", "experiment": "qHTS Inhibitors of AmpC Beta-Lactamase (assay with detergent); also: nearly all actives have a fitted effect of over 25% in size;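 as to activity change, negative = inhibition: 0% = no-compound wells and -100% = no-enzyme wells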", "details": "AmpC hydrolysis of nitrocefin, absorbance 480 nm, 0.01% Triton; activity change, negative = inhibition: at 114 µM (top of the series)", "procedure,_shortened": "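AmpC (5.3 nM in the dispensed reagent) in 20 mM phosphate pH 7.0 with 0.01% (detergent screen) or 0.0001% Triton X-100 was preincubated with compounds for 15 min at room temperature. Nitrocefin was then added from an 800 uM solution, and hydrolysis was followed at 480 nm.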", "values": [
      {"smiles": "CCCSc1cc(N2CCOCC2)nc(-c2ccccc2Cl)n1", "Potency": "inconclusive [inhibitor, full curve, poor fit]"},
      {"smiles": "CCC(C)N1CCCC1C(=O)Nc1c(C)cc(C)cc1C", "note": "(stereo not given)", "Potency": "inconclusive [inhibitor, full curve, poor fit]"},
      {"smiles": "COc1ccccc1NC(=O)c1ccc2c(c1)nnn2C", "activity change, negative = inhibition": "inactive: 2.3%"},
      {"smiles": "CN(C)S(=O)(=O)c1ccc(N=Cc2c(C(F)(F)F)[nH]n(C)c2=O)cc1", "Potency": "inconclusive [inhibitor, full curve]"},
      {"smiles": "CCN(CC)c1ncnc2c1[nH]c1ccccc12", "activity change, negative = inhibition": "inactive: -0.409%"},
      {"smiles": "CCCCNC(=S)NCCN1CCN(C(=S)NCCCC)CC1", "Potency": "inconclusive [inhibitor, full curve, poor fit]"},
      {"smiles": "COc1ccc(Br)cc1S(=O)(=O)Nc1cccc(C)n1", "activity change, negative = inhibition": "inactive: -2.77%"},
      {"smiles": "CCOC(=O)C1CCN(C(C(=O)NC2CCCCC2)c2ccc(OC)cc2)CC1", "note": "(stereo not given)", "Potency": "inconclusive [inhibitor, single point]"},
      {"smiles": "CC(=O)N1CCN(c2ccc(NCc3ccc(C)cc3)cc2)CC1", "Potency": "inconclusive [inhibitor, full curve, poor fit]"},
      {"smiles": "COc1ccc(S(=O)(=O)NC2CCCCC2)cc1F", "Potency": "inconclusive [inhibitor, single point]"},
      {"smiles": "Cc1ccc2nc(NC(=O)Cn3cc4c(n3)CCCCC4)sc2c1", "Potency": "inconclusive [inhibitor, partial curve, poor fit]"},
      {"smiles": "COc1ccc2c(c1OC)C(=O)N1N=C(c3ccc(Br)cc3)CC21", "note": "(stereo not given)", "Potency": "inconclusive [inhibitor, partial curve, poor fit]"},
      {"smiles": "CCN1C(=O)CC2(C[N+]3(C)CCC2CC3)C1=O", "note": "(stereo not given)", "Potency": "inconclusive [inhibitor, partial curve, poor fit]"},
      {"smiles": "CN(C)c1ccc(NC(=S)NCC2CCCO2)cc1", "note": "(stereo not given)", "activity change, negative = inhibition": "inactive: -10.8%"},
      {"smiles": "NC(=O)C1CCN(c2nc(C3CC3)nc3c2nnn3Cc2ccccc2)CC1", "activity change, negative = inhibition": "inactive: -3.53%"},
      {"smiles": "O=C(Nc1ccccc1F)c1ccn[nH]1", "Potency": "inconclusive [inhibitor, single point]"},
      {"smiles": "O=C(CSc1ccc([N+](=O)[O-])cc1)NNC(=O)c1ccccc1F", "Potency": "inconclusive [inhibitor, full curve, poor fit]"},
      {"smiles": "COc1ccc(Cl)cc1S(=O)(=O)NC(C)C(=O)NCCCn1ccnc1", "note": "(stereo not given)", "Potency": "inconclusive [inhibitor, single point]"},
      {"smiles": "NC(=O)C1CCCNC1", "note": "(stereo not given)", "Potency": "inconclusive [inhibitor, single point]"},
      {"smiles": "CC(=O)OC1N=C(c2ccccc2)c2cc(C)ccc2NC1=O", "note": "(stereo not given)", "Potency": "inconclusive [inhibitor, full curve, poor fit]"}
    ]}
  ]
}
